Reference: the supplement of paper PMC11348887
Counter-ions that a name gives are not always drawn. The list shows a part of the results. Cut-off read from the data, not from the text of the source: active = -2 or less and inactive = the rest. Single values are uncertain, as repeats are few or missing.

System: hPSC-derived cortical neurons (WA09)
Test: nuclei number (viability) z-score; higher = more surviving cells
Settings: 5 µM; treatment: days 7-14 after plating, readout day 21
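Note: nuclei counted from DAPI counterstain by automated high-content image analysis, four fields per well at ×20 in 384-well plates, with sequential b-score then z-score normalization.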

Structure (SMILES) | nuclei number (z-score)
COc1cc(-c2ncn(/C=C\C(=O)OC(C)C)n2)cc(C(F)(F)F)c1 | active: -3.92
CC(=O)O[C@]1(C(C)=O)CC[C@H]2[C@@H]3C=C(Cl)C4=CC(=O)CC[C@]4(C)[C@H]3CC[C@@]21C [Chlormadinone acetate] | inactive: 0.494
COc1ccc(Cl)c(Nc2nc3ccccc3nc2NS(=O)(=O)c2cccc(NC(=O)C(C)(C)N)c2)c1 [Pilaralisib (XL147)] | inactive: -0.399
CCCNC(=O)NS(=O)(=O)c1ccc(Cl)cc1 [Chlorpropamide] | inactive: 0.0507
Cn1ncnc1[C@H]1c2n[nH]c(=O)c3cc(F)cc(c23)N[C@@H]1c1ccc(F)cc1 | inactive: 0.268
Cc1cnc(Nc2ccc(OCCN3CCCC3)cc2)nc1Nc1cccc(S(=O)(=O)NC(C)(C)C)c1 | active: -3.11
C[C@]12C=CC(=O)N[C@@H]1CC[C@@H]1[C@@H]2CC[C@]2(C)[C@@H](C(=O)Nc3cc(C(F)(F)F)ccc3C(F)(F)F)CC[C@@H]12 [Dutasteride] | inactive: -0.00407
Clc1cccc(Cl)c1NC1=NCCN1 [Clonidine HCl] | inactive: 0.438
CN(C)S(=O)(=O)c1ccc2c(c1)/C(=C/c1cc3c([nH]1)CCCC3)C(=O)N2 | inactive: -0.293
CO[C@H]1/C=C/O[C@@]2(C)Oc3c(C)c(O)c4c(O)c(c5c(nc6cc(C)ccn65)c4c3C2=O)NC(=O)/C(C)=C\C=C\[C@H](C)[C@H](O)[C@@H](C)[C@@H](O)[C@@H](C)[C@H](OC(C)=O)[C@@H]1C [Rifaximin] | inactive: -0.00151
O=C(O)CCc1ccc(NCc2cccc(Oc3ccccc3)c2)cc1 | inactive: 0.379
O=C1NCC2(CCN(CCc3ccccc3)CC2)O1 [Fenspiride HCl] | inactive: 0.000535
Clc1ccc2c(c1)CCc1cccnc1C2=C1CCNCC1 [Desloratadine] | inactive: 0.355
CCS(=O)(=O)N1CC(CC#N)(n2cc(-c3ncnc4[nH]ccc34)cn2)C1 | inactive: 0.196
Nc1nccc(Oc2ccc(NC(=O)c3c[nH]cc(-c4ccc(F)cc4)c3=O)cc2F)c1Cl | inactive: 6.57
OC(c1cc(-c2ccc(Cl)cc2)nc2ccccc12)C1CCCCN1 (centres undefined) [Vacquinol-1] | active: -7.13
C[C@H]1CO[C@@H]2Cn3cc(C(=O)NCc4ccc(F)cc4F)c(=O)c(O)c3C(=O)N12 | inactive: -0.0724
NC(=O)Nc1cc(-c2cccc(F)c2)sc1C(=O)N[C@H]1CCCNC1 | inactive: -0.53
O=C(c1ccc(F)cc1)C1CCN(CCn2c(=O)[nH]c3ccccc3c2=O)CC1 [Ketanserin] | inactive: -0.56
C[C@H]1[C@H](C)CC[C@]2(C(=O)O)CC[C@]3(C)C(=CC[C@@H]4[C@@]5(C)CC[C@H](O)C(C)(C)[C@@H]5CC[C@]43C)[C@H]12 [Ursolic Acid] | inactive: 0.0353
CCC1(c2ccccc2)C(=O)NCNC1=O [Primidone] | inactive: 1.33
CCCCc1oc2ccc(NS(C)(=O)=O)cc2c1C(=O)c1ccc(OCCCN(CCCC)CCCC)cc1 [Dronedarone HCl] | active: -6

Structure (SMILES) | nuclei number (z-score)
COc1cc(Nc2c(C#N)cnc3cc(OCCCN4CCN(C)CC4)c(OC)cc23)c(Cl)cc1Cl [Bosutinib (SKI-606)] | inactive: 0.706
CCCCCCCCCC(=O)N[C@@H](Cc1c[nH]c2ccccc12)C(=O)N[C@H](CC(N)=O)C(=O)N[C@@H](CC(=O)O)C(=O)N[C@@H]1C(=O)NCC(=O)N[C@@H](CCCN)C(=O)N[C@@H](CC(=O)O)C(=O)N[C@H](C)C(=O)N[C@@H](CC(=O)O)C(=O)NCC(=O)N[C@H](CO)C(=O)N[C@@H]([C@H](C)CC(=O)O)C(=O)N[C@@H](CC(=O)c2ccccc2N)C(=O)O[C@@H]1C [Daptomycin] | inactive: 0.068
O=C1CC[C@@H](C(=O)N2CSC[C@H]2C(=O)O)N1 [Pidotimod] | inactive: -0.147
c1ccc(-c2ccc(C(c3ccccc3)n3ccnc3)cc2)cc1 (centres undefined) [Bifonazole] | inactive: -0.204
Oc1c(Cl)cc(Cl)c2cccnc12 [Chloroxine] | inactive: 1.49
COc1cc2ncnc(Nc3cccc(Cl)c3F)c2cc1OC(=O)N1CCN(C)C[C@H]1C | inactive: 0.139
COc1ccc(Cl)cc1NC(=O)Nc1cc(C)nc2ccccc12 | inactive: -0.0707
CN(C)CCC(c1ccc(Br)cc1)c1ccccn1 (centres undefined) [Brompheniramine hydrogen maleate] | inactive: 6.28
O=C(Nc1cccnc1)c1cc(-c2ccnc(F)c2)ccc1OCc1ccccc1 | inactive: 0.85
CCCNC(=O)c1cn2ncnc(Nc3cc(C(=O)NC4CC4)ccc3C)c2c1C | inactive: 0.16
COC(=O)C1=C(C)NC(C)=C(C(=O)OC(C)(C)CN(C)CCC(c2ccccc2)c2ccccc2)C1c1cccc([N+](=O)[O-])c1 (centres undefined) [Lercanidipine hydrochloride] | active: -8.31
C=CC(=O)Nc1cccc(Oc2nc(Nc3ccc(N4CCN(C)CC4)cc3)ncc2Cl)c1 | active: -2.07
C[C@@](Cc1ccc(O)c(O)c1)(NN)C(=O)O [Carbidopa] | inactive: -0.248
O=C(Oc1cccc(F)c1OC(=O)c1cccc(O)c1)c1cccc(O)c1 | active: -4.53
CCOc1nc2cccc(C(=O)O)c2n1Cc1ccc(-c2ccccc2-c2nnn[nH]2)cc1 [Candesartan] | inactive: 0.0951
NC(=O)[C@@H]1CSSCCC(=O)N[C@@H](CCCCN=C(N)N)C(=O)NCC(=O)N[C@@H](CC(=O)O)C(=O)N[C@@H](Cc2c[nH]c3ccccc23)C(=O)N2CCC[C@H]2C(=O)N1 [Eptifibatide Acetate] | inactive: 0.658
CCCCC(CC)COC(=O)CC(C(=O)OCC(CC)CCCC)S(=O)(=O)O (centres undefined) [Docusate Sodium] | inactive: 0.454
Nc1ncnc2c1ncn2[C@@H]1O[C@H](CO)[C@@H](O)[C@@H]1O [Vidarabine] | inactive: -0.0777
CC1CCN(CC[C@H]2CCCN2S(=O)(=O)c2cccc(O)c2)CC1 | inactive: -0.00247
COc1cccc(C=NCCN=Cc2cccc(OC)c2[O-])c1[O-].[Cl-].[Mn+3] | inactive: -0.762
COC(=O)Nc1nc2cc(Sc3ccccc3)ccc2[nH]1 [Fenbendazole] | inactive: -0.0278
Cc1ccc([C@@H]2O[C@H](CO)[C@@H](O)[C@H](O)[C@H]2O)cc1Cc1ccc(-c2ccc(F)cc2)s1 [Canagliflozin] | inactive: 2.72

Structure (SMILES) | nuclei number (z-score)
CC(C)(C)c1cc(C(C)(C)C)c(NC(=O)c2c[nH]c3ccccc3c2=O)cc1O [Ivacaftor (VX-770)] | inactive: 0.407
CC(C)NC[C@@H](C(=O)N1CCN(c2ncnc3c2[C@H](C)C[C@H]3O)CC1)c1ccc(Cl)cc1 | active: -3.01
Oc1cc2c(cc1O)C(c1ccccc1)CNCC2 (centres undefined) | inactive: 0.0562
Cn1c(=O)c2c(ncn2CC2OCCO2)n(C)c1=O [Doxofylline] | inactive: -0.324
COCC(=O)NC/C=C/c1ccc2ncnc(Nc3ccc(Oc4ccc(C)nc4)c(C)c3)c2c1 | inactive: 6.83
CCCCNc1ncc(C(=O)NCc2ccc(-n3ccnc3)cc2)c(NC2CCC(O)CC2)n1 (centres undefined) | inactive: -0.468
C=CC(=O)Nc1cccc(Sc2nc(Nc3ccc(N4CCN(C)CC4)cc3)ncc2Cl)c1 | active: -3.68
CCOC(=O)[C@H]1O[C@@H]1C(=O)N[C@@H](CC(C)C)C(=O)NCCC(C)C [Aloxistatin] | inactive: 0.357
CN[C@H]1CC[C@@H](c2ccc(Cl)c(Cl)c2)c2ccccc21 [Sertraline HCl] | inactive: -1.85
OCCn1cc(-c2ccc3c(c2)CC/C3=N\O)c(-c2ccncc2)n1 | inactive: 0.927
CN1CCc2nc(C(=O)N[C@@H]3C[C@@H](C(=O)N(C)C)CC[C@@H]3NC(=O)C(=O)Nc3ccc(Cl)cn3)sc2C1 [Edoxaban] | inactive: -0.692
CC[C@H]1OC(=O)[C@H](C)[C@@H](O[C@H]2C[C@@](C)(OC)[C@@H](O)[C@H](C)O2)[C@H](C)[C@@H](O[C@@H]2O[C@H](C)C[C@H](N(C)C)[C@H]2O)[C@](C)(O)C[C@@H](C)CN(C)[C@H](C)[C@@H](O)[C@]1(C)O [Azithromycin] | inactive: 0.212
CC[C@H]1OC(=O)[C@H](C)[C@@H](O[C@H]2C[C@@](C)(OC)[C@@H](O)[C@H](C)O2)[C@H](C)[C@@H](O[C@@H]2O[C@H](C)C[C@H](N(C)C)[C@H]2O)[C@](C)(O)C[C@@H](C)CN(C)[C@H](C)[C@@H](O)[C@]1(C)O [Azithromycin Dihydrate] | inactive: 0.0547
Cc1ccc(-c2cc(C(F)(F)F)nn2-c2ccc(S(N)(=O)=O)cc2)cc1 [Celecoxib] | inactive: 0.00989
CC(C)[N+]1(C)[C@@H]2CC[C@H]1C[C@@H](OC(=O)C(CO)c1ccccc1)C2 (some centres undefined) [Ipratropium Bromide] | inactive: 3.13
O=C(O)c1cccc(-c2noc(-c3ccccc3F)n2)c1 [Ataluren (PTC124)] | inactive: 0.257
Nc1ccc(S(=O)(=O)Nc2nccs2)cc1 [Sulfathiazole] | inactive: -0.802
C=C[C@]1(C)C[C@@H](OC(=O)CSC(C)(C)CNC(=O)[C@H](N)C(C)C)[C@]2(C)[C@H](C)CC[C@]3(CCC(=O)[C@H]32)[C@@H](C)[C@@H]1O [Valnemulin HCl] | inactive: 0.398
Cc1c(-c2ccc(O)cc2)n(Cc2ccc(OCCN3CCCCCC3)cc2)c2ccc(O)cc12 [Bazedoxifene Acetate] | active: -6.01
Cc1c(-c2ccc(O)cc2)n(Cc2ccc(OCCN3CCCCCC3)cc2)c2ccc(O)cc12 [Bazedoxifene HCl] | active: -4.04
